# Data: the supplement of paper PMC3334620
# Over roughly 33,000 sequences, “E-score (-0.5 to 0.5)” has its median near -0.016; the highest 2% begin near 0.32. The list shows a part of the results.
# Biological target: T1, Stp1 (UniProt B3LFK1)
# T1 sequence: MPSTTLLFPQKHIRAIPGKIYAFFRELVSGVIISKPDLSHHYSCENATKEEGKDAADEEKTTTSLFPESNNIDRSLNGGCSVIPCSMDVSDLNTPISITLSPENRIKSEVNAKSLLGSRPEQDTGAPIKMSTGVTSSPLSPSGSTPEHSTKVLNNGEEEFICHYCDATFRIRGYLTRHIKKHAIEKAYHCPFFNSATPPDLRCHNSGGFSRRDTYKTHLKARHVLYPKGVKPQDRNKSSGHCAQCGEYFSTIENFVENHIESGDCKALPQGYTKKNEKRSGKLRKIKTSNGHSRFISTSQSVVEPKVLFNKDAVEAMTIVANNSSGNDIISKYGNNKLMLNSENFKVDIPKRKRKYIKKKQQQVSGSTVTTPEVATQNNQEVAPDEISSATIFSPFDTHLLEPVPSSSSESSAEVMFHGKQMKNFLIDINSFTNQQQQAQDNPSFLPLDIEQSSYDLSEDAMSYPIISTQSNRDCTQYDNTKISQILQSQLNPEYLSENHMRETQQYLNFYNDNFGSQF
# Test: PBM E-score (8-mer binding enrichment) (E-score (-0.5 to 0.5)); higher = stronger / more preferred TF binding; most listed sequences are background and not binding sites
# Conditions: protein concentration: 200 nM; construct: GST-full length
# Method in brief: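 Masliner-normalised scans of fluorescent anti-GST signal were the basis for scoring. That signal came from GST-tagged yeast transcription factors applied at about 100-200 nM to double-stranded universal all-10-mer Agilent arrays on fresh or once-stripped slides. Each ungapped eight-base word, pooled with its reverse complement, received an E-score from the Universal PBM Analysis Suite.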
row,Sequence,PBM E-score
1,GGCCAACA,-0.109
2,ACACAGAT,0.082
3,CCCAGCGA,-0.245
4,ACGAGTTC,-0.0708
5,CTACCTTC,-0.105
6,AGACGGTG,-0.174
7,CAGCAATG,-0.194
8,CAAGACAG,-0.19
9,ACCCGAGC,-0.0235
10,TGTATCAA,0.119
11,AGAACTAT,0.00711
12,GAGCTATA,-0.237
13,CGCCTCCG,-0.0266
14,AGTTATCA,-0.0234
15,ATTCTCTG,-0.0624
16,CGGGAAGA,0.0988
17,ATGTTATC,0.0553
18,ACAAACTG,-0.167
19,AGGCGAGG,0.0357
20,GGTGTCAC,-0.0371
21,CTACTGAC,-0.121
22,ATACCGGG,-0.331
23,AGTGCTGG,-0.187
24,GCCAGACA,-0.0817
25,ATTCAAAT,0.0748

row,Sequence,PBM E-score
1,CTCGCTAA,0.0204
2,AGATCGCT,-0.177
3,TCGACCCA,-0.0414
4,ATGCATGC,0.0414
5,AACGGAAC,0.164
6,GACTTGCA,0.00352
7,AGCAATAA,-0.127
8,AGGCAAAT,0.19
9,AAAAACAG,0.0457
10,ACCCCGCA,0.0618
11,AGAGTACA,0.04
12,CCTGTTGA,0.0406
13,AGACACCA,0.0272
14,ATTGGCAC,-0.0493
15,GATACGGA,0.285
16,CTACGGAC,-0.191
17,GAGCGTTA,0.0818
18,GCAAGCCA,-0.0399
19,GAATATGC,0.0541
20,TAAGATCA,0.0196
21,AGTTGTAT,0.136
22,ATTACGGG,-0.199
23,ATCGTGCG,0.233
24,CGCCTAAG,-0.0196
25,TCCACAGA,0.0917

row,Sequence,PBM E-score
1,GAACTCCA,-0.0707
2,CGAACTGA,-0.0172
3,CGCCACTA,-0.0796
4,CGGAGACG,0.0667
5,AATTATGA,0.213
6,GCAGATAA,-0.0115
7,CCAAGTCG,-0.163
8,GAGACAGC,-0.0299
9,CCCACCTC,-0.312
10,AGCTTACG,-0.0814
11,TGCCCGCA,-0.00812
12,CGAAGTCC,-0.168
13,ATATACGC,-0.00234
14,GACCCTCA,-0.406
15,GTATAAGA,0.0837
16,GCCGCTGA,0.118
17,AATGCTGA,-0.0533
18,AAATGACT,-0.0516
19,GCAGGTTA,-0.0966
20,AAACACAT,0.117
21,ATCTGCTC,-0.272
22,AGGGCCCT,-0.229
23,TACTGCTA,0.102
24,CCCAATAA,0.0447
25,ACGAGGGG,-0.254

row,Sequence,PBM E-score
1,GCGTTGAC,0.0699
2,AGAATAGC,0.0792
3,TGGAGCAA,0.108
4,ATCCTCGG,0.00855
5,AGTCGTAC,0.0145
6,ATCAGACG,0.149
7,ACTGCGGG,-0.153
8,AGCAAGGA,-0.283
9,ACAGGTAG,-0.126
10,AATGTGAC,0.00474
11,GAGCGGAA,0.141
12,AGATCCAC,0.133
13,AGGACTAA,0.126
14,CACGAGGG,-0.253
15,AGCCATTG,0.0384
16,AAAGTCAT,-0.148
17,AACAACAA,0.129
18,CAACGGCC,0.173
19,AAGTGTAA,-0.131
20,ACTCACTG,-0.0685
21,CAAGTGGG,-0.0429
22,CACCCGTC,0.0534
23,AAACGCGC,0.0957
24,CGTGTGCA,0.131
25,CTCCGCGC,0.227

row,Sequence,PBM E-score
1,AGGGTCTC,-0.294
2,CTGCATGC,0.12
3,AATAGCCA,0.00269
4,AATTAATC,0.0567
5,GTTGCAAA,0.152
6,CCGACTAA,-0.0857
7,TCTCGTCA,-0.0502
8,ATCTATGC,0.0358
9,GATCTCAC,-0.126
10,AAGATCAA,0.0974
11,GACACTAA,0.11
12,GAGAACTC,-0.154
13,AAACGCAC,0.0916
14,ATCGTACG,0.186
15,AACAGCCC,-0.066
16,CGCGATAG,0.108
17,AGTGCCTC,0.347
18,TCTGGAAA,0.086
19,AGAGAGTA,-0.00773
20,GCTTATAC,-0.121
21,CAATGGGC,-0.0628
22,CCCCTCGA,-0.0768
23,CCCAGGTA,-0.348
24,ACGATTCG,0.113
25,GGCTTAAC,-0.0345

row,Sequence,PBM E-score
1,ATGAGCGG,0.141
2,CGTGGAGA,-0.0303
3,AAGGGATG,-0.316
4,TCCACCGA,-0.0587
5,CGCTGCTA,-0.17
6,GTTGGTAA,0.173
7,ACGTCCAA,0.00531
8,GAGGCAAC,0.14
9,ACCATAAG,0.017
10,ATATCTGA,0.0274
11,AGACGACA,-0.166
12,ATGCCGCA,0.468
13,ACCTGGAA,0.0178
14,CATTCCCA,-0.159
15,GAGATTGA,0.0645
16,CGCACGTA,0.0928
17,ACGCCCCC,-0.181
18,CCCAGCTA,-0.22
19,GCTCATCC,-0.259
20,AAACCGCC,0.123
21,GACCAAGA,-0.157
22,CAGACGTA,-0.0614
23,CAGGGATA,-0.0566
24,TTCACAAA,0.0654
25,GTTGAAGA,-0.0498

row,Sequence,PBM E-score
1,CTGCGGTA,0.0752
2,ACCATTTA,0.136
3,CCAATGCG,-0.0847
4,GAATATTA,0.162
5,GGGCGTAC,-0.134
6,TTACCTAA,0.0938
7,AGGGACAG,-0.282
8,ACCGCTGG,-0.254
9,CGCCCAAC,-0.0275
10,CAATGCGA,-0.0726
11,ACTTCCAG,-0.163
12,AGTAGCCG,0.176
13,AGAACGTA,0.0863
14,AATTAGCG,0.107
15,CCCGCGCC,0.297
16,TCTCAACA,0.0271
17,GAACTCGC,0.0761
18,TCATTGCA,0.105
19,AGAGTAAT,0.17
20,AACAATGA,0.21
21,CCCTCCCC,-0.146
22,ATTCTAAG,0.126
